From paper PMC10831045
No constants are given. Whether binding was seen depends on the method and setting. In cells and extracts the contact can be indirect. Some binding calls cover weakened binding; strength is not graded here.

By UniProt entry, the sequences of proteins in these tests, tags left out. Where a name states a change or a piece, a line headed by the entry shows the natural chain unless it says otherwise.
UniProt P55087: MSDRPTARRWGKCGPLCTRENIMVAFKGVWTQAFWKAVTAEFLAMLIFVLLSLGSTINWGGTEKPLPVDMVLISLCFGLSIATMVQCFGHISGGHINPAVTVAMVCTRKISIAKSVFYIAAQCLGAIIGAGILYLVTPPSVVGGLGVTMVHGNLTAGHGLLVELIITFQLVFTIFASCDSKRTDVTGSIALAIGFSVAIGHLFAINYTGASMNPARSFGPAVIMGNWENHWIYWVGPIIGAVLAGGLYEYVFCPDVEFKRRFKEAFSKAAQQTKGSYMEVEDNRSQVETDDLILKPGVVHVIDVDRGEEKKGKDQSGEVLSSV
UniProt Q5S007: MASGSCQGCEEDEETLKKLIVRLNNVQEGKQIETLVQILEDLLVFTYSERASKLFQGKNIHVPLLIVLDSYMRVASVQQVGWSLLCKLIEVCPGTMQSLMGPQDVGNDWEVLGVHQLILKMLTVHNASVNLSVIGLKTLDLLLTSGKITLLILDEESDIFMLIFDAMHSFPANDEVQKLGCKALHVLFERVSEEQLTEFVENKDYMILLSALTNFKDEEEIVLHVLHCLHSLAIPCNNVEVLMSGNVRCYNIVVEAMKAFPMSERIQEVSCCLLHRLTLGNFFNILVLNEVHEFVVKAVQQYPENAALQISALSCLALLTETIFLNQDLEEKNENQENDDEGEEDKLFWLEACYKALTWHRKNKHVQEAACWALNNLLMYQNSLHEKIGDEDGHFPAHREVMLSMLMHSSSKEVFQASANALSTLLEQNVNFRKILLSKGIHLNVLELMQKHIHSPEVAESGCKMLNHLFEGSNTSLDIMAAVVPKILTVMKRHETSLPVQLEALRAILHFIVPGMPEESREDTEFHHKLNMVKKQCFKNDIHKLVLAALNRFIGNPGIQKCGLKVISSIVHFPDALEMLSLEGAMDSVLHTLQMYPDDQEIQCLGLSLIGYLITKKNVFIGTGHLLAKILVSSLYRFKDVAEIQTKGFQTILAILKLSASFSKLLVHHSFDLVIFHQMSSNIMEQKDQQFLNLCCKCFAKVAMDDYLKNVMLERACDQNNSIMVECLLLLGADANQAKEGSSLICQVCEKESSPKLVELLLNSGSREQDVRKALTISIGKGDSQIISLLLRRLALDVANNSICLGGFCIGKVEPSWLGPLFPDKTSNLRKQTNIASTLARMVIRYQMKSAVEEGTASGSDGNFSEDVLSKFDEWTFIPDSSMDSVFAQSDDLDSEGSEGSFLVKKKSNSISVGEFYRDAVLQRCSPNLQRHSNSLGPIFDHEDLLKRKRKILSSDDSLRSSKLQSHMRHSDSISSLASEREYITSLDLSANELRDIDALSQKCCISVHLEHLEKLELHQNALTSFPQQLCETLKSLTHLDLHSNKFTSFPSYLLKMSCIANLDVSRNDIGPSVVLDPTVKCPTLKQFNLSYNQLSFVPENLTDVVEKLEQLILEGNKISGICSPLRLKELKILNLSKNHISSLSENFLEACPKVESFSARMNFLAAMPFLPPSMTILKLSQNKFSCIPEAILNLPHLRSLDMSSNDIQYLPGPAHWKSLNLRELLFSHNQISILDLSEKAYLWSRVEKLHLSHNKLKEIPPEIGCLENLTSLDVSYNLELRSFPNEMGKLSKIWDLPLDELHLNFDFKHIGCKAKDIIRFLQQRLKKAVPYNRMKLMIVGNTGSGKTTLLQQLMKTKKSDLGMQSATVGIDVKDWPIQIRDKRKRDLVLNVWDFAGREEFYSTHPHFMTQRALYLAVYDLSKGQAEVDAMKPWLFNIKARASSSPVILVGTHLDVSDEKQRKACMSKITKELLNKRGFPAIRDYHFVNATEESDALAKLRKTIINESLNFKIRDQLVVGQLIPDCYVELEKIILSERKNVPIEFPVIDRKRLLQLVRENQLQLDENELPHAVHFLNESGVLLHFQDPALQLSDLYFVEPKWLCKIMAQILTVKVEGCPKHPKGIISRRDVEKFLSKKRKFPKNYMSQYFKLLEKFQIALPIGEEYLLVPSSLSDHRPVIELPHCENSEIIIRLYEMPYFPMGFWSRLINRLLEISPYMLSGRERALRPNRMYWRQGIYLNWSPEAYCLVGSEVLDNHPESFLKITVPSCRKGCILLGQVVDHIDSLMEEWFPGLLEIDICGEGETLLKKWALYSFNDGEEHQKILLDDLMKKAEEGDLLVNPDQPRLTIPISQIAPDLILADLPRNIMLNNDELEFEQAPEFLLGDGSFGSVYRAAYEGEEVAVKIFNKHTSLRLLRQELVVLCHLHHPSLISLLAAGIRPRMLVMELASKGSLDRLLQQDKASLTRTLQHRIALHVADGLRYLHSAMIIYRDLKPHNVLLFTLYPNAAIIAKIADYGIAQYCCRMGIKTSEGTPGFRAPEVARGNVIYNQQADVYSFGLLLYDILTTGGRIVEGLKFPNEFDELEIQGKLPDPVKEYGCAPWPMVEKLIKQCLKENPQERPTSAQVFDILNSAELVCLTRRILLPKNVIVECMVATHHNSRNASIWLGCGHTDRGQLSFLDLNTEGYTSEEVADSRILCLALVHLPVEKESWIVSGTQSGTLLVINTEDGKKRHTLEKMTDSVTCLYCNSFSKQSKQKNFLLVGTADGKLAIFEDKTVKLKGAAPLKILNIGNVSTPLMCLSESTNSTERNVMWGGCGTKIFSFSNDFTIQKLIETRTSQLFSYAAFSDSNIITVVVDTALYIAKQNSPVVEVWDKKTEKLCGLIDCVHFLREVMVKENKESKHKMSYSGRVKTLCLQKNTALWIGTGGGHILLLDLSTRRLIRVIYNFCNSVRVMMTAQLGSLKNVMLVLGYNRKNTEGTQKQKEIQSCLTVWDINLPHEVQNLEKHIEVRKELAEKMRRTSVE

How the values were obtained:
HA-AQP4 = HA-AQP4 (UniProt P55087); assay: co-IP; HeLa cell lysates co-transfected with FLAG-LRRK2 domains and HA-AQP4; co-IP by antibody to HA
FLAG-LRRK2 G2019S = FLAG-LRRK2 G2019S (UniProt Q5S007); assay: co-IP; HeLa cell lysates co-transfected with FLAG-LRRK2 WT/G2019S and HA-AQP4 (with or without Mli-2); co-IP by antibody to LRRK2
FLAG-LRRK2 WT = FLAG-LRRK2 WT (UniProt Q5S007); assay: as above

| Substance | binding (HA-AQP4) | binding (FLAG-LRRK2 G2019S) | binding (FLAG-LRRK2 WT) |
| --- | --- | --- | --- |
| FLAG-LRRK2 COR domain (from UniProt Q5S007 1546-1740) (domain or fragment) | binds | – | – |
| FLAG-LRRK2 Kinase domain (from UniProt Q5S007 1879-2138) (domain or fragment) | binds | – | – |
| FLAG-LRRK2 ROC domain (from UniProt Q5S007 1328-1511) (domain or fragment) | no binding | – | – |
| HA-AQP4 (from UniProt P55087 1-323) | – | binds | binds |
